Laboratory results: publication PMC4336329 (PLoS ONE, 2015)
The whole screen tested about 310,000 compounds, of which about 2,200 (0.71%) showed an effect of 50% or more. The effect is printed as a negative number. The list shows a part of the results.

Molecular target: human ether-à-go-go-related gene (hERG) potassium channel (human, UniProt Q12809)
Assay: primary screen, population patch clamp on CHO cells stably expressing hERG

Sequence of human ether-à-go-go-related gene (hERG) potassium channel (Q12809 whole entry, looked up): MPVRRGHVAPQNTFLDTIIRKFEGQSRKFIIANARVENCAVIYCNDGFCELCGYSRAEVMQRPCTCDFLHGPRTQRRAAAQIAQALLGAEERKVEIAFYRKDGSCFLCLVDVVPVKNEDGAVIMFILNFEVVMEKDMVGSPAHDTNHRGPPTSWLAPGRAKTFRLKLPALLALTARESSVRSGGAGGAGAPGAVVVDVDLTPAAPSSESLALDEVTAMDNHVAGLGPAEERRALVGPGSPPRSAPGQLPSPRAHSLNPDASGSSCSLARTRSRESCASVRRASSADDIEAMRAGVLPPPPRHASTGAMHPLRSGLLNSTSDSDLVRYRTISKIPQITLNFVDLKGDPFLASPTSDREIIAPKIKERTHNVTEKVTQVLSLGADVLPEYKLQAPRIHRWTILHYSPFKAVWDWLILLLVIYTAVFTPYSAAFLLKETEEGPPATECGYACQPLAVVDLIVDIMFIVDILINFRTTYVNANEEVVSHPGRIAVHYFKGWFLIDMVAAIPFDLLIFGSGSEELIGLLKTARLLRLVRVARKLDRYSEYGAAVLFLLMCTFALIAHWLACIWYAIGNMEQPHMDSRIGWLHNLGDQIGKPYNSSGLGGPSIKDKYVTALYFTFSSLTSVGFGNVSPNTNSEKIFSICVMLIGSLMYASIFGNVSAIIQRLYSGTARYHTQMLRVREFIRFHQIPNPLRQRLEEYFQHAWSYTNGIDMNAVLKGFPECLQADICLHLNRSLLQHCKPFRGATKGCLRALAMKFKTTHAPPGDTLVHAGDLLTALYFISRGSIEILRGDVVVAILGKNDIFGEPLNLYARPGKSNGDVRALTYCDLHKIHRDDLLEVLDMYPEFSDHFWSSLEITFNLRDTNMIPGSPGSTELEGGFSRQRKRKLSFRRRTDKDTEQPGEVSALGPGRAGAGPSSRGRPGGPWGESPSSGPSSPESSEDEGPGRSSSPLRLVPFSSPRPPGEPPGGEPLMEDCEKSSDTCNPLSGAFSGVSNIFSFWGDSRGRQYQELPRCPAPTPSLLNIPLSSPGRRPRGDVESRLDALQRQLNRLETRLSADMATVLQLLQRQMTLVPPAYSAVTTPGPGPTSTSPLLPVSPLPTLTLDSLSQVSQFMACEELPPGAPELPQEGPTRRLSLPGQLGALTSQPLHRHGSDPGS

SMILES | hERG current change (%, negative = inhibition) at 1uM [%]
CN1CCN(Cc2nc(N)nc(Nc3ccc4c(c3)OCCO4)n2)CC1 | 3.07
Cc1ccc(O)c(/C=N/NC(=O)CN2CCCC2)c1 | 15.3
CCOC(=O)CSc1nc2cc(C(=O)N3CCC(C(N)=O)CC3)ccc2c(=O)n1-c1ccccc1 | -6.2
CSCCC(=O)N1CCC(n2nccc2NC(=O)c2ccc3c(c2)OCO3)CC1 | 17.7
CC(Oc1ccccc1)C(=O)Nc1nc2c(s1)C(=O)CC(C)(C)C2 (centres unmarked) | 16.4
COc1ccccc1NC(=S)N1CCN(c2cccc(C)c2C)CC1 | 9.2
Cc1ccc(NS(=O)(=O)c2ccc(C(=O)N3CCN(S(=O)(=O)c4ccccc4)CC3)cc2)cc1 | 3.25
CN(C)C(=O)c1c(NC(=O)c2ccccc2)sc2c1CCC2 | 12.9
CCc1ccccc1NC(=O)CSc1nnc([C@@H]2CCCN2C(=O)OC(C)(C)C)o1 | -5.77
COc1ccccc1-c1coc2c(CN3CCN(CCO)CC3)c(O)ccc2c1=O | 11
CCC(Sc1nc(N)cc(=O)[nH]1)C(=O)NC(C(=O)OC)c1ccccc1 (centres unmarked) | 1.66
CCCOc1ccc(C(=O)Nn2c(C)nc3ccccc3c2=O)cc1 | 12.5
O=C(CSc1ccc2nnc(-c3ccccn3)n2n1)N1CCN(c2ccccc2)CC1 | -89.9
Cc1ccsc1C(=O)N1CCCC(CCC(=O)NCc2ccccc2F)C1 (centres unmarked) | 0.269
CC(/C=N/NC(=O)c1nnn(-c2nonc2N)c1CN1CCCCC1)=C\c1ccccc1 | 12.5
O=S(=O)(NCc1ccccc1)c1ccc(S(=O)(=O)N2CCCC2)cc1 | 5.51
Cc1nc(SCC(=O)NC2CCCCC2)[nH]c(=O)c1C | 9.01
C#CC1CCCCC1NC(=O)Nc1cnccc1C(F)(F)F (centres unmarked) | 14.4
CCOC(=O)c1cc(C)n(CCCN2CCOCC2)c1C | 11.3
COc1ccc(C2C(C(=O)c3sc(C)nc3C)=C(O)C(=O)N2CCN(C)C)cc1 (centres unmarked) | 7.77
CCC12C(=O)C(CC)(C(c3ccccc3)=C1c1ccccc1)[C@@H]1C(=O)N(c3ccc(C)cc3)C(=O)C12 (some centres unmarked) | 17.2
OCCOCCNc1ncnc2nc[nH]c12 | 12.7
COC(=O)C(NC(=O)c1ccc(C)cc1)(Nc1cccc(C)n1)C(F)(F)F (centres unmarked) | -8.35

SMILES | hERG current change (%, negative = inhibition) at 1uM [%]
COC(=O)c1ccccc1S(=O)(=O)C(C)(C)C | 8.06
Cc1ccc(C2(CCNS(=O)(=O)c3ccc(C)cc3)CCOC(C(C)C)C2)cc1 (centres unmarked) | 9.3
O=C(O)C(=O)O.O=[N+]([O-])c1ccccc1S(=O)(=O)N1CCN(Cc2ccsc2)CC1 | -0.882
C=CCSc1nn2c(=O)c3ccccc3nc2s1 | -5.13
C=CCN(C(=O)c1csnn1)C(C(=O)NC1CCCCC1)c1ccccc1F (centres unmarked) | 12.2
COc1cc(OC)c2c(c1O)OC(c1ccccc1)CC2=O (centres unmarked) | 19.4
COc1ccc(N2C(=O)CSC2c2ccc(F)c(F)c2)cc1 (centres unmarked) | 18.4
Cc1ccccc1NC(=O)C1(NC(=O)c2cccc(N3C(=O)CSC3c3ccccc3)c2)CCCCC1 (centres unmarked) | 13
C[C@H]1CCC[C@]2(CC(=O)c3cc(F)ccc3O2)C1 | -0.218
CCCCCCn1c(CN2CCCC(C)C2)nc2c1c(=O)n(C)c(=O)n2C (centres unmarked) | -26.4
CCN=C(NCC)SC1CC(=O)N(CCc2ccccc2)C1=O (centres unmarked) | 18.4
CCOC(=O)C1=C(COC(=O)/C=C/c2ccco2)NC(=O)NC1C (centres unmarked) | 19.5
COc1ccc(C(=O)Oc2cccnc2)cc1OC | 2.08
Cc1cc(OCC(=O)N2CCN(c3ccccn3)CC2)cc(C)c1Br | 5.12
Cc1ccnn1CC(=O)N/N=C/c1ccc([N+](=O)[O-])s1 | 2.8
COc1ccc(C2NCc3ccc4c(c3-n3cccc32)OCO4)cc1OC.Cl (centres unmarked) | 2.37
COc1ccc(OC)c(S(=O)(=O)n2ccnc2C)c1 | 9.58
CCc1c(-c2n[nH]c(=S)n2Cc2ccccc2)csc1C | 9.85
Cc1cc(/C=C2\C(=O)NC(=O)N(c3ccc(Br)cc3)C2=O)c(C)n1C | 2.27
Cc1nc(-c2ccccc2)sc1C(=O)NN | 17.2
O=C(Nc1ccc([N+](=O)[O-])cc1)N1CCN(C(=O)C2CCCO2)CC1 (centres unmarked) | 10.8
CCC1(CC)NC(=O)N(CC(=O)N2CCN(c3ccccc3F)CC2)C1=O | 13.4
COc1cc2c(cc1OC)C(C)N(C(=O)c1ccc(Br)o1)CC2 (centres unmarked) | 14.1

SMILES | hERG current change (%, negative = inhibition) at 1uM [%]
CCOC(=O)C1=C(C)OC(N)=C(C#N)C1c1cc2cc(C)ccc2nc1N1CCCCC1 (centres unmarked) | 10.8
COc1cc(SC)ccc1C(=O)N1CC(C)OC(C)C1 (centres unmarked) | 27.1
CC(C)=CCc1c(O)ccc(C2COc3c(CC=C(C)C)c(O)cc(O)c3C2=O)c1O (centres unmarked) | 15.1
O=C(CSc1nnnn1-c1cccc2ccccc12)Nc1ccc(N2CCOCC2)c(Cl)c1 | 3.54
Cc1c(Br)c(C(F)(F)F)nn1CC(=O)NCCCn1ccnc1 | -1.72
CC(C)Cn1c(-c2ccc(C#N)cc2)nc2c1c(=O)[nH]c(=O)n2CC(C)C | 2.59
CN(c1ccccc1C(=O)NCC1CCCO1)S(C)(=O)=O (centres unmarked) | 9.73
Fc1cccc(Cc2noc(CN3CCCN(C4Cc5ccccc5C4)CC3)n2)c1 | -86.9
Cc1ccc(C(=O)Nc2cccc(C(=O)NC3CCCCC3)c2)cc1 | 10.2
COc1cc(C2SCC(=O)N2CCCN(C)C)cc(OC)c1OC.Cl (centres unmarked) | 13.1
CCCCNC(=O)CC1C(=O)N(Cc2ccccc2)C(C)c2nc3ccccc3n21 (centres unmarked) | 6.07
N=c1c(C(=O)NCCN2CCOCC2)cc2c(=O)n3ccccc3nc2n1CCc1ccccc1 | -33.1
COC(=O)c1cccc(NC(=O)/C=C/c2ccc3c(c2)OCO3)c1 | 1.54
COc1ccc(NC(=O)c2ccc(OC)cc2)cc1 | 0.831
CC(C)N=C(NS(=O)(=O)c1ccccc1)C(Cl)(Cl)Cl | 2.91
CN1CCN(CC(=O)Nc2nnc(-c3cccs3)s2)CC1 | 4.05
CN1C(=C2C(=O)OC(C)(C)OC2=O)Sc2ccccc21 | 10.9
O=C(CSCc1ccccc1)Nc1cccc(F)c1 | 10.5
COc1ccc(OCC2CNC(=O)O2)cc1 (centres unmarked) | 4.78
COCCNc1ccc(-c2n[nH]c(=O)c3ccccc23)cc1[N+](=O)[O-] | 12.3
CCOC(=O)C1(CCOc2ccccc2)CCN(CC(O)CO)CC1 (centres unmarked) | 1.95
Cc1ccc(Cl)cc1-c1ccc(/C=N/n2cnnc2)o1 | -2.37
CCOC(=O)c1ccc(S(=O)(=O)NC2CC2)cc1 | 10.1

SMILES | hERG current change (%, negative = inhibition) at 1uM [%]
N#Cc1ccc(-c2ccc(C3Nc4ccccc4C(=O)N3O)o2)cc1 (centres unmarked) | 6.27
N#C/C(=C\Nc1ccccc1SC(F)(F)F)c1nc(-c2ccc(Cl)cc2)cs1 | 9.96
COc1ccc(C2c3ccc(O)cc3Oc3ncn(CCN4CCOCC4)c(=N)c32)cc1 (centres unmarked) | -2.19
Cn1ccsc1=NC(=O)c1ccc(Cl)cc1 | -6.2
COC(=O)c1c(NC(=O)C2C3CCC(O3)C2C(=O)O)sc2c1CCCCCC2 (centres unmarked) | 1.6
NC1=C(c2ccc([N+](=O)[O-])cc2)C(=O)CO1 | 8.03
CCOc1cc(NC(=O)C2CCCO2)c(OCC)cc1NC(=O)C1CC1 (centres unmarked) | -2.85
CC(C)c1cccc(C2=CC(=O)C[C@H](c3ccc(F)cc3)C2)c1 | 13.7
COC(=O)c1ccc(NC(=O)c2cccc(OC)c2)cc1 | 7.39
COc1ccc(OCC(O)CN2CCC(CN3C(=O)c4cccc5cccc(c45)C3=O)CC2)cc1.Cl (centres unmarked) | -19.4
CCOc1cc(/C=N/NC(=O)c2cc(C3CC3)[nH]n2)ccc1O | 7.24
COc1ccccc1N1C(=O)CC(N2CCN(c3ccc([N+](=O)[O-])cc3)CC2)C1=O (centres unmarked) | -16.3
Cc1ccc(C(=O)N/C(=C\c2ccco2)C(=O)NCCCn2ccnc2)cc1C | -15.7
COC(=O)C1(CO)NC(c2cccs2)C2C(=O)N(c3ccccc3)C(=O)C21 (centres unmarked) | 10.8
O=C1N/C(=C/c2cccn2-c2ccccc2)C(=O)N1c1cccc(Cl)c1 | 8.91
CCOC(=O)CNC(=O)CN1CCC(c2nc3ccccc3[nH]2)CC1 | 15.1
Cc1ccc(S(=O)(=O)N2CCOCC2)cc1C(=O)NCCCn1ccnc1 | 15.7
Cn1c2ccccc2c(=O)c2cc(C#CC3=CCCCC3)ccc21 | 4.55
O=C(NCCN1CCN(C(=O)c2ccc([N+](=O)[O-])cc2)CC1)C(=O)NCc1ccccc1 | -85.9
Cc1cc(C)n2nc(C(=O)OCC(=O)N3CCC3)nc2n1 | 12.9
